Results: paper PMC11637191, “The pH-dependence of efflux ratios determined with bidirectional transport assays across cellular monolayers” (International Journal of Pharmaceutics: X, 2024)
Several values for one entry are separate records, joined by “and”; a condition that tells them apart may be missing. Identical values can stand only once. Like-named read-outs stand apart in the source and are kept apart here.

Key:
MDCK-MDR1 cells [1] = details: cited from earlier work
[2] = Measurement of paracellular transport (Ppara) in MDCK-MDR1 cells with and without P-gp inhibitors; format: in vitro ADME, canine; details: dog
Excerpt: In initial fits, we used experimentally obtained values for Ppara , determined by measuring the Papp of the relevant compound at a pH value where paracellular transport was expected to dominate. Since the compounds in this study are P-gp substrates, elacridar was also used to inhibit P-gp. Under these conditions, the measured Papp is expected to be a measure of Ppara . […]
X Measurement of paracellular transport […]
assess its relative contribution to overall flux, it is necessary to quantify paracellular transport in some way. An approximation of paracellular transport can be mathematically calculated as desc ribed in […]
and cell type can influence and complicate the predictions, leading to uncertainties. H owever, it can also be experimentally measured provided that it can be assured that the P app would be dominated by the contribution of P para . […]
compounds. In order to ensure paracellular dominance, 2 µM elacridar was used to inhibit potential P-gp facilitated efflux, and the transport buffer was set to a pH that would severely restrict the neutral […]
Table S13: P app values and measured logP para for basic and acidic marker compounds. P app values are the mean of three timepoints per replicate, for a total of three replicates (n = 3) ± standard […]
Compound pH Papp, A⟶B logP para Recovery fn
In light of the uncertainties in predicting P para , it was presumed more apt to measure P para for each compound individually in parallel with the pH dependence experiments. As described in Section 4.3 of the main text, experiments were initially performed for each tested compound with inhibitor and appropriate pH values (similar to those performed for Table S12) in an attempt to ensure the dominance of paracellular transport. These values could then be used as a direct measure for P para for each compound that could be fed to the model for its individual fit. […]
affecting P para and/or the measurement of it, we measured the P app of more commonly-used markers for paracellular transport with and without inhibitor. The transport of these rather hydrophilic compounds is known to be dominated by the paracellular route. Furthermore, for our MDCK- MDR1 […]
efflux is not expected to play a role. As such, the addition of inhibitor in this case is purely to evaluate if the P app changes when it is present.

MDCK-MDR1 cells [3] = test: Comparison of Papp,B-A with and without inhibitor in MDCK-MDR1 cells (own and literature data); details: calculated from literature Papp,B⟶A and Papp with inhibitor; pH 7.4 iso-method
[4] = with inhibitor, pH 7.4 iso-method, ref Obradovic et al. (2007)
[5] = without inhibitor, pH 7.4 iso-method, ref Obradovic et al. (2007)
[6] = with inhibitor, pH 7.4 iso-method, ref Doan et al. (2002)
[7] = without inhibitor, pH 7.4 iso-method, ref Doan et al. (2002)

Structure (SMILES) | Papp, inhibitor (MDCK-MDR1 cells [1]; [4]) [cm/s] | Papp, B⟶A (MDCK-MDR1 cells [1]; [5]) [cm/s] | Factor difference (MDCK-MDR1 cells [3]) | Papp, inhibitor (MDCK-MDR1 cells [1]; [6]) [cm/s] | Papp, B⟶A (MDCK-MDR1 cells [1]; [7]) [cm/s] | also measured
CN1CC[C@]23c4c5ccc(O)c4O[C@H]2[C@@H](O)C=C[C@H]3[C@H]1C5 [Morphine] | – | – | – | – | – | Papp, B⟶A (MDCK-MDR1 cells [1]; MDCK-MDR1, pH 7.4): 14.4; Papp, inhibitor (MDCK-MDR1 cells [1]; MDCK-MDR1, pH 7.4): 8.62
CC(C)NCC(O)COc1ccc(CC(N)=O)cc1 (stereo not shown) [Atenolol] | – | – | – | – | – | Papp ([2]; MDCK-MDR1, pH 6, A⟶B, no inhibitor, pH 6, one replicate, read-out: Papp): 0.1 ×10⁻⁶ cm/s; Papp ([2]; MDCK-MDR1, pH 6, with elacridar 2 µM, A⟶B + 2 µM elacridar, pH 6, one replicate, read-out: Papp): 0.4 ×10⁻⁶ cm/s; Papp B→A ([2]; MDCK-MDR1, B⟶A, no inhibitor, pH 6, one replicate): 0.1 ×10⁻⁶ cm/s
CCOC(=O)N1CCC(=C2c3ccc(Cl)cc3CCc3cccnc32)CC1 [Loratadine] | 3.964e-05 | 3.5e-05 | 1 | – | – | –
NS(=O)(=O)c1cc(C(=O)O)c(NCc2ccco2)cc1Cl [Furosemide] | – | – | – | – | – | recovery ([2]; MDCK-MDR1, pH 9, B⟶A, no inhibitor, pH 9): 100%; recovery ([2]; MDCK-MDR1, pH 9, with elacridar 2 µM, + 2 µM elacridar, pH 9, n = 3 (Table S13)): 100%; Papp ([2]; MDCK-MDR1, pH 9, with elacridar 2 µM, + 2 µM elacridar, pH 9, three replicates (n = 3) (Table S13), read-out: Papp, A⟶B): 1.5 ± 0.4 ×10⁻⁶ cm/s; Papp ([2]; MDCK-MDR1, pH 9, with elacridar 2 µM, A⟶B + 2 µM elacridar, pH 9, one replicate (Table S14), read-out: Papp): 1.1 ± 0.4 ×10⁻⁶ cm/s
O=C(O)COCCN1CCN(C(c2ccccc2)c2ccc(Cl)cc2)CC1 (stereo not shown) [Cetirizine] | 2.46e-06 | 1.83e-05 | 5 and 7 | 4e-06 | 2.17e-05 | –
CN(C)CCOC(c1ccccc1)c1ccccc1 [Diphenhydramine] | – | – | – | 7.78e-05 | 0.0001037 | –
